Test results taken from PubChem BioAssay AID256 (DTP/NCI, 2004).
Toxic doses and inconclusive results are not listed. A number of entries come with more than one value. The list is limited to them. There may be further records. Values that stand side by side are repeats across runs, samples, wells, individuals or studies. What stands in brackets tells the records apart. Letters hold for one entry only.

Test system: CD2F1 mice, L1210 leukemia ip, survival T/C
Test: NCI In Vivo Anticancer Drug Screen. Data for tumor model L1210 Leukemia (intraperitoneal) in CD2F1 (CDF1) mice
Conditions: higher = longer survival
In short: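 Implant tumor; dose compound or vehicle; measure endpoint in both groups; report treated divided by control.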

CN(C)N=Nc1ccc([N+](=O)[O-])cc1C(N)=O
T/C (endpoint: mean survival time, dose: 150.0 mg/kg/injection, schedule: Q01DX009 (ip), vehicle: Klucel (hydroxypropylcellulose) (HPC)): 119 % of control and 166 % of control

Nc1nc([S-])c2[nH]cnc2n1.[Cl-].[Cl-].[H+].[Pd+2].[Pd+2].[Pd+2]
T/C (endpoint: mean survival time, dose: 50.0 mg/kg/injection, schedule: Q04DX003 (ip), vehicle: suspension in saline): 121 % of control and 153 % of control

O=C(O)CCC(O)C(=O)O.[NH-]C1CCCCC1[NH-].[Pt+2] (stereo unspecified)
T/C (endpoint: median survival time, dose: 12.5 mg/kg/injection, schedule: Q04DX003 (ip), vehicle: saline): 124 % of control and 154 % of control

O=C(O)C(O)C(O)C(O)C(O)CO.[NH-]C1CCCCC1[NH-].[Pt+2] (stereo unspecified)
T/C (endpoint: mean survival time, dose: 3.12 mg/kg/injection, schedule: Q04DX003 (ip), vehicle: saline): 114 % of control [sample A] and 172 % of control [sample B]

Nc1n[nH]c(N)n1
T/C (endpoint: mean survival time, dose: 800.0 mg/kg/injection, schedule: Q03HX024 (ip), vehicle: saline): 93 % of control and 181 % of control

C1CN1c1nc(N2CC2)nc(N2CC2)n1
T/C (endpoint: mean survival time, dose: 1.0 mg/kg/injection, schedule: Q01DX009 (ip), vehicle: saline): 88 % of control and 160 % of control

CCOC(=O)CCC(NC(=O)c1ccc(N(CC)Cc2cnc3nc(N)nc(N)c3n2)cc1)C(=O)OCC (stereo unspecified)
T/C (endpoint: mean survival time, dose: 6.25 mg/kg/injection, schedule: Q01DX009 (ip), vehicle: Klucel (hydroxypropylcellulose) (HPC)): 86 % of control and 152 % of control

C=C1C(=O)OC(CCCCCCCCCCCCC)C1C(=O)O (stereo unspecified)
T/C (endpoint: mean survival time, dose: 40.0 mg/kg/injection, schedule: Q04DX002 (ip), vehicle: saline with Tween-80): 103 % of control and 200 % of control

Nc1nc(N)c2cc(CNc3ccc(C(=O)NC(CC(=O)O)CC(=O)O)cc3)ccc2n1
T/C (endpoint: mean survival time, dose: 12.5 mg/kg/injection, schedule: Q01DX009 (ip), vehicle: Klucel (hydroxypropylcellulose) (HPC)): 120 % of control and 185 % of control
T/C (endpoint: mean survival time, dose: 100.0 mg/kg/injection, schedule: Q01DX009 (ip), vehicle: Klucel (hydroxypropylcellulose) (HPC)): 113 % of control and 151 % of control

COC(=O)c1ccc(OC(=O)Nc2ccc(N(CCCl)CCCl)cc2)cc1
T/C (endpoint: mean survival time, dose: 100.0 mg/kg/injection, schedule: Q01DX001 (ip), vehicle: Klucel (hydroxypropylcellulose) (HPC)): 115 % of control and 153 % of control
T/C (endpoint: mean survival time, dose: 200.0 mg/kg/injection, schedule: Q01DX001 (ip), vehicle: Klucel (hydroxypropylcellulose) (HPC)): 112 % of control and 152 % of control
T/C (endpoint: mean survival time, dose: 400.0 mg/kg/injection, schedule: Q01DX001 (ip), vehicle: Klucel (hydroxypropylcellulose) (HPC)): 123 % of control and 155 % of control

O=P1(N(CCCl)CCCl)NCCCO1 (stereo unspecified)
T/C (endpoint: mean survival time, dose: 31.25 mg/kg/injection, schedule: Q01DX001 (ip), vehicle: saline): 119 % of control and 153 % of control
T/C (endpoint: mean survival time, dose: 80.0 mg/kg/injection, schedule: Q01DX009 (ip), vehicle: saline): 116 % of control, 124 % of control, 177 % of control

Cc1c2ccncc2c(C)c2c1[nH]c1ccccc12
T/C (endpoint: mean survival time, dose: 100.0 mg/kg/injection, schedule: Q04DX003 (oral), vehicle: other): 111 % of control and 151 % of control
T/C (endpoint: mean survival time, dose: 100.0 mg/kg/injection, schedule: Q04DX003 (oral), vehicle: water): 101 % of control and 153 % of control

CC(CCC(C)OS(C)(=O)=O)OS(C)(=O)=O (stereo unspecified)
T/C (endpoint: mean survival time, dose: 16.0 mg/kg/injection, schedule: Q01DX009 (ip), vehicle: saline): 120 % of control and 158 % of control
T/C (endpoint: mean survival time, dose: 32.0 mg/kg/injection, schedule: Q01DX009 (ip), vehicle: saline): 88 % of control and 150 % of control

CC[C@]1(O)C[C@H]2CN(CCc3c([nH]c4ccccc34)[C@@](C(=O)OC)(c3cc4c(cc3OC)N(C=O)[C@H]3[C@@](O)(C(=O)OC)[C@H](OC(C)=O)[C@]5(CC)C=CCN6CC[C@]43[C@@H]65)C2)C1
T/C (endpoint: mean survival time, dose: 1.8 mg/kg/injection, schedule: Q04DX003 (ip), vehicle: water): 124 % of control and 156 % of control

COc1ccc(/C=C/C(CC(NO)c2ccc(OC)cc2)=N/O)cc1 (stereo unspecified)
T/C (endpoint: mean survival time, dose: 100.0 mg/kg/injection, schedule: Q01DX001 (ip), vehicle: saline with Tween-80): 101 % of control and 163 % of control

CC1CCC(NC(=O)N(CCCl)N=O)CC1 (stereo unspecified)
T/C (endpoint: median survival time, dose: 25.0 mg/kg/injection, schedule: Q01DX001 (ip), vehicle: saline): 96 % of control and 375 % of control
T/C (endpoint: median survival time, dose: 30.0 mg/kg/injection, schedule: Q01DX001 (oral), vehicle: saline with Tween-80): 121 % of control, 213 % of control, 377 % of control
T/C (endpoint: median survival time, dose: 50.0 mg/kg/injection, schedule: Q01DX001 (ip), vehicle: saline): 123 % of control and 375 % of control

O=c1n(CC2CO2)c(=O)n(CC2CO2)c(=O)n1CC1CO1 (stereo unspecified)
T/C (endpoint: mean survival time, dose: 100.0 mg/kg/injection, schedule: Q01DX009 (ip), vehicle: saline): 100 % of control [sample A] and 156 % of control [sample B]
T/C (endpoint: median survival time, dose: 100.0 mg/kg/injection, schedule: Q01DX009 (oral), vehicle: saline): 178 % of control [sample A] and 116 % of control [sample B]
T/C (endpoint: median survival time, dose: 100.0 mg/kg/injection, schedule: Q04DX003 (ip), vehicle: saline): 111 % of control [sample A] and 160 % of control [sample B]
T/C (endpoint: median survival time, dose: 400.0 mg/kg/injection, schedule: Q01DX001 (oral), vehicle: saline): 163 % of control [sample A] and 118 % of control [sample B]
T/C (endpoint: median survival time, dose: 400.0 mg/kg/injection, schedule: Q08DX002 (oral), vehicle: saline): 187 % of control [sample A] and 116 % of control [sample B]

CC1OC(OC2CC(O)(C(=O)CO)Cc3c(O)c4c(c(O)c32)C(=O)c2ccccc2C4=O)CC(N)C1O (stereo unspecified)
T/C (endpoint: mean survival time, dose: 0.5 mg/kg/injection, schedule: Q01DX009 (ip), vehicle: water): 110 % of control and 161 % of control

C#CCN(Cc1ccc2nc(N)[nH]c(=O)c2c1)c1ccc(C(=O)NC(CCC(=O)O)C(=O)O)cc1 (stereo unspecified)
T/C (endpoint: median survival time, dose: 240.0 mg/kg/injection, schedule: Q01DX005 (ip), vehicle: water): 87 % of control and 160 % of control
